# Experimental data: article PMC4336329 (PLoS ONE, 2015)
# Screen size: about 310,000 compounds; about 14,000 (4.5%) showed an effect of 50% or more. Effects have a minus sign here. The list shows a part of the results.
# Molecular target: human ether-à-go-go-related gene (hERG) potassium channel (human, UniProt Q12809)
# Assay: primary screen, population patch clamp on CHO cells stably expressing hERG
# 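Note: peak tail current of the secondary pulse compared with the same well before compound.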
# Sequence of human ether-à-go-go-related gene (hERG) potassium channel (Q12809 whole entry, looked up): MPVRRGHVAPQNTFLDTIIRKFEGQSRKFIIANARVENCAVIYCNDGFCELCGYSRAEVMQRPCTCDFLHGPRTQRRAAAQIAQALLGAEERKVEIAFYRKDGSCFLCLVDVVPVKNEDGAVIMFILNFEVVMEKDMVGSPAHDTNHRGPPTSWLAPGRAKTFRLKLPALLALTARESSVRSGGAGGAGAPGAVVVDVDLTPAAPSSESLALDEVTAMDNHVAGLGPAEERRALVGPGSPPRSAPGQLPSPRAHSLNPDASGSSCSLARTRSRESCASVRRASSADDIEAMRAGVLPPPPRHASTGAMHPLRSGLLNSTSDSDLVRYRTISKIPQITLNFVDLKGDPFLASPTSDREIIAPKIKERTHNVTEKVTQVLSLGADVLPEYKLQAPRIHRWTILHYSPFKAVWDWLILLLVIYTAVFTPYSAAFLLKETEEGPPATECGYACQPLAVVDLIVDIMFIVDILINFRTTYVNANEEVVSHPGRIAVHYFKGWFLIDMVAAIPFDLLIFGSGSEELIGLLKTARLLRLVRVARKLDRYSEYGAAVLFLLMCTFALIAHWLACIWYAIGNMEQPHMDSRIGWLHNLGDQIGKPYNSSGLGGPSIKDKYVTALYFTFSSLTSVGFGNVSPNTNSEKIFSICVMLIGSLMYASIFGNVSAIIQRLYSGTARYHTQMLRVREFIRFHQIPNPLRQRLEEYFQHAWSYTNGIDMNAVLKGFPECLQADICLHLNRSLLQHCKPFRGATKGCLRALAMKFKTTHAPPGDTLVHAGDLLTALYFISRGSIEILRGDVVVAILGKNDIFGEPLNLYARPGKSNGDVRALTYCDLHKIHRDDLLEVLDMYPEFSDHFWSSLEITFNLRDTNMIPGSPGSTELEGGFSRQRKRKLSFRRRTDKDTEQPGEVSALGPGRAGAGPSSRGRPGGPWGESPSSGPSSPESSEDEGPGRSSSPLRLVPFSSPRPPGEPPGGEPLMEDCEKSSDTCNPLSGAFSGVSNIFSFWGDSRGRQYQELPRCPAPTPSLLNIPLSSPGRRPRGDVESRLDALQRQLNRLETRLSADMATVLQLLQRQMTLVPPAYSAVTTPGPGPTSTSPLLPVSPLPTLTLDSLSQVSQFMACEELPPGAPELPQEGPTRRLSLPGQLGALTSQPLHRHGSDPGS
row,SMILES,"hERG current change (%, negative = inhibition) at 10uM [%]"
1,CCN1CCn2c3c(c4cc(Cl)ccc42)CCCC31.Cl (centres unmarked),-39.1
2,Cc1ccc(C)n1-c1nn(S(=O)(=O)c2cccc(C(F)(F)F)c2)c2cccc(F)c12,-4.23
3,COc1cc(NC(=O)CN(C)S(=O)(=O)c2ccc(C)cc2)cc(OC)c1,-19.9
4,CCOC(=O)c1[nH]n(-c2ccc(Cl)cc2)c(=O)c1C,-4.62
5,CC(=O)C1=C(c2ccccc2)NC(=O)NC1c1cccs1 (centres unmarked),17.1
6,CCc1ccc(OCC(O)CN2CCN(c3ccccc3)CC2)cc1.Cl (centres unmarked),-60.3
7,CCc1cccc(C)c1NC(=O)COC(=O)Cn1c(C)csc1=O,17.1
8,Cc1ccc(CNn2cn[nH]c2=S)cc1,17.3
9,Fc1ccc(CNCCC(Cc2ccccc2)c2ccco2)cc1 (centres unmarked),-54.3
10,Cc1ccc(NS(=O)(=O)c2ccc3[nH]c(=O)sc3c2)cc1,2.03
11,COc1ccccc1N(CCC#N)C(=O)CSc1nc(-c2ccccc2)cn1N,3.14
12,CC(=O)Nc1ccc(S(=O)(=O)NC(C(=O)O)C2=CCC=CC2)cc1 (centres unmarked),16.8
13,CC1=NN2C(=N)/C(=C\c3cc(C)n(-c4cccc(C)c4)c3C)C(=O)N=C2S1,11.6
14,Cc1c(N2C(=O)/C(=C/c3cccc4ccccc34)SC2=S)c(=O)n(-c2ccccc2)n1C,2.36
15,Fc1ccc(/C=C/c2nnc(-c3cccs3)o2)cc1,16.7
16,COc1ccccc1N(C)S(=O)(=O)c1ccc(C(=O)OCC(=O)c2c[nH]c3ccccc23)cc1,19.5
17,CCC(C)NC(=O)CC(NS(=O)(=O)c1ccc(NC(C)=O)cc1)C(C)C (centres unmarked),21.8
18,N#Cc1c(N2CCN(C(=O)c3ccccc3Cl)CC2)nc(-c2ccccc2)c2c1CCCC2,17.6
19,CC(=O)Oc1ccc(C(=O)Nc2ccc(S(=O)(=O)NCC3CCCO3)cc2)cc1 (centres unmarked),19.4

row,SMILES,"hERG current change (%, negative = inhibition) at 10uM [%]"
1,O=C(COC(=O)/C=C/c1cccs1)Nc1ccc(F)cc1,7.9
2,O=C(COc1cc2oc(=O)c3c(c2cc1Cl)CCC3)Nc1cccnc1,6.03
3,c1ccc(SCc2nc(-c3cccnc3)no2)cc1,-6.39
4,CCCn1nnnc1SCC(=O)N(C(C)C)C(C)C,11.8
5,Cc1c(C)c2ccc(OCC(=O)N3CCN(c4ccc(F)cc4)CC3)c(C)c2oc1=O,2.26
6,Cc1cc2nc(CCN(C(=S)NCC3CCCO3)C3CCCC3)[nH]c2cc1C (centres unmarked),-33.2
7,CCCS(=O)(=O)N1CCN(Cc2c[nH]c3ccccc23)CC1.O=C(O)C(=O)O,-18.3
8,O=c1[nH]cnc2scc(-c3ccsc3)c12,-1.7
9,COc1ccc(/C=C/C(=O)NCCOc2ccccc2OC)cc1,-13.6
10,CN(c1ccc(C(=O)N2CCCCC2)cc1)S(=O)(=O)c1cccs1,8.46
11,CCCCN1C(=O)/C(=C2/C=CC=CN2C)SC1=S,-39.2
12,NS(=O)(=O)c1ccc2ccccc2c1,4.97
13,CC1CN(CCCOc2ccccc2[N+](=O)[O-])CC(C)O1.O=C(O)C(=O)O (centres unmarked),-12.8
14,COC(CNC(=O)c1cc(C(=O)c2c(-c3c(Cl)cccc3Cl)noc2C)c[nH]1)OC,-0.567
15,C=CCOC(=O)C1=C(C)NC(SCC(=O)Nc2ccc(C)c(Cl)c2)=C(C#N)C1c1ccco1 (centres unmarked),16.1
16,CC(C)c1ccc(-c2csc(NC(=O)c3cccs3)c2C(=O)O)cc1,18.3
17,Cc1ccn2c(=O)nc(SCC(=O)NCc3ccc4c(c3)OCO4)nc2c1,-23.9
18,O=C(/C=C/c1cccnc1)c1ccc(F)c(F)c1,-21.7
19,CC(C)OC(=O)/C(=C/c1ccco1)c1ccccc1,2.66

row,SMILES,"hERG current change (%, negative = inhibition) at 10uM [%]"
1,Cc1cc(NC(=O)c2cc3cccc([N+](=O)[O-])c3[nH]2)ccc1F,20.6
2,CN(C(=S)NC(=O)c1ccc(Br)o1)c1ccccc1,-2.61
3,O=c1cc(O)n(-c2ccccc2F)c(=S)[nH]1,5
4,COc1cccc(-n2c(SCC(=O)O)nnc2-c2cccnc2)c1,-1.69
5,CSc1ncccc1C(=O)N1CCN(S(=O)(=O)c2ccc3ccccc3c2)CC1,-34.9
6,COCCN(C(=O)CCC(=O)Nc1ccccn1)C(C(=O)NCCC(C)C)c1ccc(C)cc1 (centres unmarked),-19.7
7,CCCC(C)NC(=O)c1c2c(nc3ccccc13)CCC2 (centres unmarked),24.3
8,Oc1ccc(Br)cc1-c1ccnn1-c1ccccc1,12.6
9,Cc1nc2ccccc2c(-c2ccccc2)c1C(=O)c1ccccc1,0.392
10,O=C(O)CCCCn1c(SCc2cc(=O)n3cc(Cl)ccc3n2)nc2ccsc2c1=O,2.87
11,Cc1cc(-c2ccccc2)c(C#N)c(N)n1,12.1
12,CCN1C(=O)[C@H]2[C@@H](c3ccc(-c4ccc(OC)cc4)c(OC)c3)N3CCCC[C@@]3(C(=O)OC)[C@H]2C1=O.O=C(O)C(F)(F)F,1.18
13,O=C(O)c1ccc(CSc2nnc(SCc3ccccc3)s2)cc1,-31.7
14,Cc1noc(C)c1S(=O)(=O)N1CCCC(C(=O)c2cccc(OC(C)C)c2)C1 (centres unmarked),19.6
15,O=C(CN1CCCCCC1)N/N=C/c1ccc(Cl)c(Cl)c1,-60
16,COCCN(C(=O)CCC(=O)Nc1cc(C)on1)C(C(=O)NC1CCCC1)c1ccc(C(C)C)cc1 (centres unmarked),-28.3
17,CCOC(=O)c1ccc(NC2Nc3cc(C)nn3S2)cc1 (centres unmarked),10.8
18,COc1cccc(CN(C)C(=O)c2cc(COc3ccc4ncccc4c3)on2)c1,-14.8
